# According to PubChem BioAssay AID624296 (National Center for Advancing Translational Sciences (NCATS), 2012):
# About 9,900 (2.8%) of roughly 350,000 compounds were called active. This list was built around the results that the source calls inconclusive (neither active nor inactive); the mix of calls is not that of the screen. The call rests on the fitted dose curve; in most records, active means well fitted activation curve with a large enough effect; inconclusive means small, poorly fitted or top-dose-only effect; inactive means no such curve, though single readings can be large or run the other way. No potency is given beside an inconclusive call; the fits are too rough.
# Test: A quantitative high throughput screen for small molecules that induce DNA re-replication in MCF 10a normal breast cells. Further: nearly all actives have a fitted effect of over 50% in size. On activity, positive = re-replication: % of control where 0% means no effect.
# Conditions: MCF 10A DNA re-replication, Hoechst nuclear intensity, 48 h; activity, positive = re-replication: at 46.1 µM (top of the series)
# Potency means the concentration at half of the fitted maximal effect; tags describe the fitted curve by direction and shape.
Compound,"activity, positive = re-replication",Potency
CC(=O)OC1C(O)C(C)OC(OC2C(OC(=O)C3CCC4C(C3)OC3(CC(OC(=O)/C=C/c5ccccc5)C(C)CO3)C43CO3)OC(C)C(O)C2OC(C)=O)C1O (stereo not given),inconclusive: 84% [activator],–
O=C(CNC(=O)c1ccccc1Cl)Nc1ccc(Br)cc1C(=O)c1ccccc1,inactive: -8.26%,–
CC(C)CCOP(=O)(c1ccc(N(C)C)cc1)C(O)c1ccc(Cl)cc1Cl (stereo not given),–,"inconclusive [activator, single point]"
O=C(c1ccc2c(c1)ncn2C1CCCCCC1)N1CCC2(CC1)OCCO2,–,"inconclusive [activator, single point]"
[O-]c1ccccc1-[n+]1c(-c2ccccc2)cc(-c2ccccc2)cc1-c1ccccc1,–,"inconclusive [activator, partial curve, poor fit]"
CCN1C[C@]2(C)CC[C@H](O)[C@]34C1[C@H](C[C@H]23)[C@@]1(O)C[C@H](OC)[C@H]2C[C@@H]4[C@@H]1C2O (stereo not given in full),inactive: -9.35%,–
COc1ccccc1OCC(=O)N1CCCC(N2CCN(c3ccc(F)cc3)CC2)C1 (stereo not given),inactive: -0.0942%,–
COc1cc(CN2CCN(c3cc(C)ccc3C)CC2)ccc1O,inactive: 13%,–
Brc1ccc(-[n+]2c(-c3ccccc3)cc(-c3ccccc3)cc2-c2ccccc2)cc1,–,"inconclusive [activator, single point]"
COc1cccc2c1O[C@H]1C(=O)CC[C@H]3CN(C)CCC231 (stereo not given in full),inactive: 4.97%,–
CCOc1cc2c(cc1OCC)-n1cccc1C(c1cccc(OCC)c1O)NC2 (stereo not given),–,active: 18.4 µM
CC1=CC2/C=C(\C)CCC(O)C(O)/C=C/C(=O)C23C(=O)NC(CC(C)C)C3C1C (stereo not given),–,"inconclusive [activator, single point]"
O=c1[nH]c(=O)n(-c2ccccc2)c(O)c1/C=C1/C(c2ccccc2)=Nc2ccccc21,–,active: 2.06 µM
CN(C)CCNC(=O)c1cccn(Cc2cc(C(F)(F)F)cc(C(F)(F)F)c2)c1=O,–,"inconclusive [activator, single point]"
CC1CCCCN1C(=O)c1ccc(N2CC3CC(C2)c2cccc(=O)n2C3)c([N+](=O)[O-])c1 (stereo not given),–,"inconclusive [activator, partial curve, poor fit]"
O=C(Nc1ccccc1Cl)OC1CN2CCC1CC2 (stereo not given),–,"inconclusive [activator, single point]"
OCC(O)[C@H]1O[C@@H]2O[C@H](C(Cl)(Cl)Cl)O[C@@H]2[C@H]1O (stereo not given in full),inactive: -5.06%,–
COc1ccc(OC)c(NC(=O)C2C(C(=O)O)C3(Cl)C(Cl)=C(Cl)C2(Cl)C3(Cl)Cl)c1 (stereo not given),–,"inconclusive [activator, partial curve, poor fit]"
O=C(CCCN1CCC2(CC1)C(=O)NCN2c1ccccc1)c1ccc(F)cc1,–,"inconclusive [activator, partial curve, poor fit]"
CC(=NCCC(c1ccccc1)c1ccccc1)c1c(O)n(C)c(=O)n(C)c1=O,–,"inconclusive [activator, partial curve, poor fit]"

Compound,"activity, positive = re-replication",Potency
Cc1nn(C)cc1/C=C1/CC2C3CC=C4CC(O)CCC4(C)C3CCC2(C)C1=O (stereo not given),–,"inconclusive [activator, partial curve, poor fit]"
O=[N+]([O-])c1ccc(Cl)c([N+](=O)[O-])c1,–,"inconclusive [activator, single point]"
Cc1ccc(-n2c(O)c(C=NCCN3CCOCC3)c(=O)[nH]c2=O)cc1,inactive: -4.07%,–
COC(=O)C1=C(c2ccc(Cl)c(C(F)(F)F)c2)C[C@@H]2CC[C@H]1N2C(=O)N1CCC(O)(c2ccc(Cl)cc2)CC1,–,"inconclusive [activator, partial curve, poor fit]"
CC1=C(N2CC2)C(=O)C(CO)=C(N2CC2)C1=O,–,"inconclusive [activator, full curve, poor fit]"
CC(C)Oc1cccnc1N(C)C1CCN(Cc2ccccc2)CC1,inactive: -2.63%,–
CCOC(=O)[C@]1(C#N)[C@@H]2C=CC(C(C)=O)=CN2[C@@H](C(N)=O)[C@@H]1c1ccsc1,inactive: -1.37%,–
COc1ccc2c3c1OC1[C@H](O)CCC4[C@@H](C2)N(C)CC[C@]314 (stereo not given in full),–,"inconclusive [activator, single point]"
C=CCN1CC[C@]23c4c5ccc(O)c4OC2C(O)C=CC3[C@H]1C5 (stereo not given in full),inactive: -37.7%,–
C=C1CC[C@@]2(O)[C@H]3Cc4ccc(O)c5c4[C@@]2(CCN3CC2CC2)[C@H]1O5,–,inactive
C=CC[C@@H](C)CC(=O)C(CCCN=[N+]=[N-])SOOc1ccccc1 (stereo not given in full),–,"inconclusive [activator, full curve, poor fit]"
O=C(Nc1cccnc1)c1c(O)c2c(n(Cc3ccccc3)c1=O)CCCC2,–,"inconclusive [activator, single point]"
CCC(=O)c1cn(Cc2ccccc2)c2ccccc12,–,"inconclusive [activator, partial curve, poor fit]"
COc1cc(/C=N/NP(=S)(c2ccccc2)c2ccccc2)ccc1O,–,active: 11.2 µM
N#Cc1c(N2CCNCC2)nc(-c2ccco2)c2c1CCCC2,–,"inconclusive [activator, partial curve, poor fit]"
C[C@H]1CCC[C@@H](O)CCC/C=C/c2cc(O)cc(O)c2C(=O)O1,–,active: 10.3 µM
COc1cc(C(=O)N/N=C/C23CC[C@@H](O)CC2(O)CC[C@@H]2[C@@H]3CCC3(C)C(C4=CC(=O)OC4)CCC23O)ccc1O (stereo not given in full),–,"inconclusive [activator, partial curve, poor fit]"
Cc1ccc(/C=C2/C(=O)NC(=O)N(CCc3ccc(F)cc3)C2=O)s1,–,"inconclusive [activator, partial curve, poor fit]"
CC(=O)c1cccc(OCC(O)CN2CC=C(c3ccccc3)CC2)c1 (stereo not given),–,"inconclusive [activator, partial curve, poor fit]"
ClCCN(CCCl)c1ccc(-n2cnc3c(Cl)ncnc32)cc1,–,active: 2.91 µM
